Results taken from PMC4336329 (PLoS ONE, 2015).
The whole screen tested about 310,000 compounds, of which about 14,000 (4.5%) showed an effect of 50% or more. The effect is printed as a negative number. Some of the results follow.

target: human ether-à-go-go-related gene (hERG) potassium channel (human, UniProt Q12809); test: primary screen, population patch clamp on CHO cells stably expressing hERG
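Also: peak tail current of the secondary pulse compared with the same well before compound.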

Chain of human ether-à-go-go-related gene (hERG) potassium channel (Q12809 whole entry, looked up): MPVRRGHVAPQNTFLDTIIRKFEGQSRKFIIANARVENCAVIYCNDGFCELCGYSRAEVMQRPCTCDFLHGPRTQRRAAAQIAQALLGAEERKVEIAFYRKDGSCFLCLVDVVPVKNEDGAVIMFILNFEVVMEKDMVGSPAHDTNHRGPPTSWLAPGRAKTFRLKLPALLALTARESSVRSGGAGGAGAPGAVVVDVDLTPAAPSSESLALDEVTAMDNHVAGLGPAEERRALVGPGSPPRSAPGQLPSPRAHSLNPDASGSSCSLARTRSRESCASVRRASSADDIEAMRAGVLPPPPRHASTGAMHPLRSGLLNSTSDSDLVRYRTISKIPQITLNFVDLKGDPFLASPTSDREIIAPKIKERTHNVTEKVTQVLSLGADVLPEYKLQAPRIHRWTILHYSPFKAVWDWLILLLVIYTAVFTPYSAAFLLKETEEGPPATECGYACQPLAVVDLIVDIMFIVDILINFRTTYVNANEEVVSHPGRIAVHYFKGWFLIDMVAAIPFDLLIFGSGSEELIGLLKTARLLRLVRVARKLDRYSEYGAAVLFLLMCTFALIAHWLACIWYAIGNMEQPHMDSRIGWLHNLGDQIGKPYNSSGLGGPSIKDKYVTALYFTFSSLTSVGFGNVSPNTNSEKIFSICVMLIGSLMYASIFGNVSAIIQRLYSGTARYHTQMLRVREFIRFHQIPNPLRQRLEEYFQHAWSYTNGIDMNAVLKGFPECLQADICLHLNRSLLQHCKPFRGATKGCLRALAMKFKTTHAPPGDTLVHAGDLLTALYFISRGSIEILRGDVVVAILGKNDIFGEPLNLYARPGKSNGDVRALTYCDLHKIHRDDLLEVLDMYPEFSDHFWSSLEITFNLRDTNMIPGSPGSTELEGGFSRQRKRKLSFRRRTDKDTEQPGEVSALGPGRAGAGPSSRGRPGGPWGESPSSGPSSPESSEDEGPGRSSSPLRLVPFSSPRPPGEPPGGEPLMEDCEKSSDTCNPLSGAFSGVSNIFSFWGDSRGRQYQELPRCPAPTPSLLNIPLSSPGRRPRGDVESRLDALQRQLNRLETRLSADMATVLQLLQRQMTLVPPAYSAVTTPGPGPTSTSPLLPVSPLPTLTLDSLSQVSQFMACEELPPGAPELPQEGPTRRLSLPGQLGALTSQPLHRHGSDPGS

Row | SMILES | hERG current change (%, negative = inhibition) at 10uM [%]
1 | COc1ccc(CC(=O)n2nc(-c3ccc(Cl)cc3)nc2NCc2ccco2)cc1 | 5.43
2 | COC(=O)c1ccc2c(=O)n(-c3ccccc3F)c(=S)[nH]c2c1 | 13.1
3 | O=C(c1ccc(F)cc1)N1CCC(c2ccccc2)C1 (stereo not shown) | 2.75
4 | COc1cccc(NC(=O)N(Cc2ccco2)C(C)c2cccs2)c1 (stereo not shown) | 8.59
5 | COCc1c(C(=O)OCc2nc(N)nc(Nc3ccccc3C)n2)oc2ccccc12 | -0.995
6 | O=C(Nc1ccc(Cl)cc1)Nc1ccc(N2CCC(C(F)(F)F)CC2)nc1 | 2.39
7 | COC(=O)c1ccccc1OP(=O)(c1cccc([N+](=O)[O-])c1)c1cccc([N+](=O)[O-])c1 | -26.1
8 | CC(C)c1nnc(NC(=O)Cc2ccc(Br)cc2)s1 | 13
9 | Cc1ccc(CNC(=O)c2ccc(Cl)c(S(N)(=O)=O)c2)n1C | 11.4
10 | COC(=O)CCC(=O)Nc1ccc(Cl)c(Cl)c1 | -1.38
11 | COc1ccc(NC(=O)CC(C(=O)O)C(C)c2ccccc2)cc1 (stereo not shown) | 16.6
12 | CCCc1cc(Nc2cccc(OCC)c2)n2ncnc2n1 | -68
13 | Brc1ccc(-c2csc(N3CCC(c4ccccc4)C3)n2)cc1 (stereo not shown) | -2.28
14 | CN(CC(=O)Nc1ccc(Cl)cc1)CC(=O)Nc1cccc(Br)c1 | -13.1
15 | COC(=O)C1=C(N)OC2=C(C(=O)CCC2)C1c1ccc2c(c1)OCO2 (stereo not shown) | 10.6
16 | O=C1CSC(c2cn(-c3ccccc3)nc2-c2cc3ccccc3o2)N1Cc1ccccc1 (stereo not shown) | -6.82
17 | COc1cc(OC)c(C2=NOC(C(=O)NCc3cccs3)C2)cc1Cl (stereo not shown) | -0.985
18 | CCOc1ccc(-n2c(COc3ccc(C)cc3)nnc2SCC(N)=O)cc1 | -25.9
19 | CC(C)c1nc2oc3ccccc3c(=O)c2c(=O)n1-c1ccccc1 | -2.83
20 | O=C(CCc1nnc2ccc(NCc3ccccc3)nn12)NCC1CCN(C2CCCC2)C1 (stereo not shown) | 14.2
21 | CC(=O)Cn1cnc2c(sc3nc(C)cc(C)c32)c1=O | 16.1
22 | O=C(/C=C/c1ccco1)Oc1ccc(C(=S)N2CCOCC2)cc1 | 14.4
23 | COc1cccc(OCC(=O)NNC(=O)Cc2cccs2)c1 | 29
24 | O=C(NCc1cccs1)c1cc2c(s1)CCCC2 | -9.4
25 | O=C(Cn1nnc(-c2ccccc2F)n1)OCC(=O)c1ccccc1 | 10.9
